# According to the supplement of paper PMC12217912:
# This is one part of the list. The full chains were built here from the parent and the listed change. Values near 0.05 are background.
# B1: TEV protease; numbered along this chain (parent)
# chain: MGESLFKGPRDYNPISSSICHLTNESDGHTTSLYGIGFGPFIITNKHLFRRNNGTLVVQSLHGVFKVKDTTTLQQHLVDGRDMIIIRMPKDFPPFPQKLKFREPQREERICLVTTNFQTKSMSSMVSDTSCTFPSGDGIFWKHWIQTKDGQCGSPLVSTRDGFIVGIHSASNFTNTNNYFTSVPKNFMELLTNQEAQQWVSGWRLNADSVLWGGHKVFMVKPEEPFQPVKEATQL
# Variants of: B1
# Experiment: raw area under fraction-flipped curve 0-4 h after induction (AUC4h, not background-subtracted), DNA-recorder readout of cleavage of the substrate (dimensionless); higher = more cleavage of the substrate by the protease variant
# Settings: temperature: 34 °C; time window: 0-4 h after rhamnose induction
# Method: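 In vivo DNA recorder in E. coli TOP10(DE3) ΔrhaA at 34 °C. Each TEVp single-site mutant (parent TEVp 0) is paired with a single-site variant of the 7-mer TEVs (canonical ENLYFQ|S). The substrate sits between flexible linkers in a Bxb1-sfGFP-TEVs-SsrA fusion, so cleavage stabilises Bxb1 and speeds flipping of a recombination array, read by NGS. The value is the raw area under the fraction-flipped curve over 0-4 h after rhamnose induction (AUC4h), with ≥20 reads per time point. It is not background-subtracted; inactive controls average about 0.047.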
# 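Also: Bxb1 expression induced with 0.2% (w/v) L-rhamnose at OD600 near 0.5, cultures sampled hourly, flipped fraction per protease–substrate barcode pair counted by paired-end Illumina sequencing.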
Variant,area with substrate EALYFQS,area with substrate EILYFQS,area with substrate EKLYFQS,area with substrate ELLYFQS,area with substrate EPLYFQS,area with substrate EQLYFQS,area with substrate ERLYFQS,area with substrate ESLYFQS,area with substrate EDLYFQS,area with substrate EELYFQS
MGESLFKGPRDYNPISSSICHLTNESDGHTTSLYGIGFGPFIITNKHLFRRNNGTLVVQWLHGVFKVKDTTTLQQHLVDGRDMIIIRMPKDFPPFPQKLKFREPQREERICLVTTNFQTKSMSSMVSDTSCTFPSGDGIFWKHWIQTKDGQCGSPLVSTRDGFIVGIHSASNFTNTNNYFTSVPKNFMELLTNQEAQQWVSGWRLNADSVLWGGHKVFMVKPEEPFQPVKEATQL [S60W],0.123,0.0965,0.073,0.0931,0.164,0.0921,0.103,0.139,,
MGESLFKGPRDYNPISSSICHLTNESDGHTTSLYGIGFGPFIITNKHLFRRNNGTLVVQSLHGVFKVKDTTTLQQHLVDGRDMIIIRMPKTFPPFPQKLKFREPQREERICLVTTNFQTKSMSSMVSDTSCTFPSGDGIFWKHWIQTKDGQCGSPLVSTRDGFIVGIHSASNFTNTNNYFTSVPKNFMELLTNQEAQQWVSGWRLNADSVLWGGHKVFMVKPEEPFQPVKEATQL [D91T],0.149,,0.0847,,,0.0471,0.0899,0.096,0.11,0.0985
MGESLFKGPRDYNPISSSICHLTNESDGHTTSLYGIGFGPFIITNKHLFRRNNGTLVVQSLHGVFKVKDTTTLQQHLVDGRDMIIIRMPKSFPPFPQKLKFREPQREERICLVTTNFQTKSMSSMVSDTSCTFPSGDGIFWKHWIQTKDGQCGSPLVSTRDGFIVGIHSASNFTNTNNYFTSVPKNFMELLTNQEAQQWVSGWRLNADSVLWGGHKVFMVKPEEPFQPVKEATQL [D91S],0.124,0.103,0.137,0.0837,,0.108,,0.11,0.123,
MGESLFKGPRDYNPISSSICHLTNESDGHTTSLYGIGFGPFIITNKHLFRRNNGTLVVQSFHGVFKVKDTTTLQQHLVDGRDMIIIRMPKDFPPFPQKLKFREPQREERICLVTTNFQTKSMSSMVSDTSCTFPSGDGIFWKHWIQTKDGQCGSPLVSTRDGFIVGIHSASNFTNTNNYFTSVPKNFMELLTNQEAQQWVSGWRLNADSVLWGGHKVFMVKPEEPFQPVKEATQL [L61F],0.0872,0.0711,,,,,,,,
MGESLFKGPRDYNPISSSICHLTNESDGHTTSLYGIGFGPFIITNKHLFRRNNGTLVVQSLHGVFWVKDTTTLQQHLVDGRDMIIIRMPKDFPPFPQKLKFREPQREERICLVTTNFQTKSMSSMVSDTSCTFPSGDGIFWKHWIQTKDGQCGSPLVSTRDGFIVGIHSASNFTNTNNYFTSVPKNFMELLTNQEAQQWVSGWRLNADSVLWGGHKVFMVKPEEPFQPVKEATQL [K66W],0.0921,,,,,0.0962,,0.121,,
MGESLFKGPRDYNPISSSICHLTNESDGHTTSLYGIGFGPFIITNKHLFRRNNGTLVVQSLHGVFEVKDTTTLQQHLVDGRDMIIIRMPKDFPPFPQKLKFREPQREERICLVTTNFQTKSMSSMVSDTSCTFPSGDGIFWKHWIQTKDGQCGSPLVSTRDGFIVGIHSASNFTNTNNYFTSVPKNFMELLTNQEAQQWVSGWRLNADSVLWGGHKVFMVKPEEPFQPVKEATQL [K66E],0.154,0.103,0.129,,,0.111,,0.122,,
MGESLFKGPRDYNPISSSICHLTNESDGHTTSLYGIGFGPFIITNKHLFRRNNGTLVVQSLHGVFKVKDTTTLQQHLVDGRDMIIIRMVKDFPPFPQKLKFREPQREERICLVTTNFQTKSMSSMVSDTSCTFPSGDGIFWKHWIQTKDGQCGSPLVSTRDGFIVGIHSASNFTNTNNYFTSVPKNFMELLTNQEAQQWVSGWRLNADSVLWGGHKVFMVKPEEPFQPVKEATQL [P89V],0.094,0.0755,,0.0523,,,,,,
MGESLFKGPRDYNPISSSICHLTNESDGHTTSLYGIGFGPFIITNKHLFRRNNGTLVVQSLHGVFKVKDTTTLQQHLVDGRDMIIIRMPKDFPVFPQKLKFREPQREERICLVTTNFQTKSMSSMVSDTSCTFPSGDGIFWKHWIQTKDGQCGSPLVSTRDGFIVGIHSASNFTNTNNYFTSVPKNFMELLTNQEAQQWVSGWRLNADSVLWGGHKVFMVKPEEPFQPVKEATQL [P94V],0.12,,,0.119,0.158,,0.128,0.0988,0.153,
MGESLFKGPRDYNPISSSICHLTNESDGHTTSLYGIGFGPFIITNKHLFRRNNGTLVVQSLHGVFKVKDTTTLQDHLVDGRDMIIIRMPKDFPPFPQKLKFREPQREERICLVTTNFQTKSMSSMVSDTSCTFPSGDGIFWKHWIQTKDGQCGSPLVSTRDGFIVGIHSASNFTNTNNYFTSVPKNFMELLTNQEAQQWVSGWRLNADSVLWGGHKVFMVKPEEPFQPVKEATQL [Q75D],0.056,0.053,,0.0564,,,0.0712,0.058,,
MGESLFKGPRDYNPISSSICHLTNESDGHTTSLYGIGFGPFIITNKHLFRRNNGTLVVQSLHGVFKVKDTTTLQQHLVDGRDMIIIVMPKDFPPFPQKLKFREPQREERICLVTTNFQTKSMSSMVSDTSCTFPSGDGIFWKHWIQTKDGQCGSPLVSTRDGFIVGIHSASNFTNTNNYFTSVPKNFMELLTNQEAQQWVSGWRLNADSVLWGGHKVFMVKPEEPFQPVKEATQL [R87V],0.0925,,,,,0.0805,,0.108,,
MGESLFKGPRDYNPISSSICHLTNESDGHTTSLYGIGFGPFIITNKHLFRRNNGTLVVQSLHGVFKVKDTTTLQQHLVDGRDMIIINMPKDFPPFPQKLKFREPQREERICLVTTNFQTKSMSSMVSDTSCTFPSGDGIFWKHWIQTKDGQCGSPLVSTRDGFIVGIHSASNFTNTNNYFTSVPKNFMELLTNQEAQQWVSGWRLNADSVLWGGHKVFMVKPEEPFQPVKEATQL [R87N],0.129,0.0744,,,0.0927,,,,,

# Same assay, conditions: temperature: 34 °C; time window: 0-4 h after rhamnose induction
Variant,area with substrate EFLYFQS,area with substrate ETLYFQS,area with substrate EWLYFQS,area with substrate EGLYFQS,area with substrate EHLYFQS,area with substrate EVLYFQS,area with substrate EYLYFQS,area with substrate EMLYFQS
MGESLFKGPRDYNPISSSICHLTNESDGHTTSLYGIGFGPFIITNKHLFRRNNGTLVVQSLHGVFKVKDTTTLQQHLVDGRDMIIIRMPKTFPPFPQKLKFREPQREERICLVTTNFQTKSMSSMVSDTSCTFPSGDGIFWKHWIQTKDGQCGSPLVSTRDGFIVGIHSASNFTNTNNYFTSVPKNFMELLTNQEAQQWVSGWRLNADSVLWGGHKVFMVKPEEPFQPVKEATQL [D91T],0.112,0.0985,0.112,,,,,
MGESLFKGPRDYNPISSSICHLTNESDGHTTSLYGIGFGPFIITNKHLFRRNNGTLVVQSLHGVFKVKDTTTLQQHLVDGRDMIIIRMPKSFPPFPQKLKFREPQREERICLVTTNFQTKSMSSMVSDTSCTFPSGDGIFWKHWIQTKDGQCGSPLVSTRDGFIVGIHSASNFTNTNNYFTSVPKNFMELLTNQEAQQWVSGWRLNADSVLWGGHKVFMVKPEEPFQPVKEATQL [D91S],,,0.102,0.108,0.117,,,
MGESLFKGPRDYNPISSSICHLTNESDGHTTSLYGIGFGPFIITNKHLFRRNNGTLVVQSFHGVFKVKDTTTLQQHLVDGRDMIIIRMPKDFPPFPQKLKFREPQREERICLVTTNFQTKSMSSMVSDTSCTFPSGDGIFWKHWIQTKDGQCGSPLVSTRDGFIVGIHSASNFTNTNNYFTSVPKNFMELLTNQEAQQWVSGWRLNADSVLWGGHKVFMVKPEEPFQPVKEATQL [L61F],,,,0.108,,0.0874,,
MGESLFKGPRDYNPISSSICHLTNESDGHTTSLYGIGFGPFIITNKHLFRRNNGTLVVQSLHGVFWVKDTTTLQQHLVDGRDMIIIRMPKDFPPFPQKLKFREPQREERICLVTTNFQTKSMSSMVSDTSCTFPSGDGIFWKHWIQTKDGQCGSPLVSTRDGFIVGIHSASNFTNTNNYFTSVPKNFMELLTNQEAQQWVSGWRLNADSVLWGGHKVFMVKPEEPFQPVKEATQL [K66W],,0.0774,,,0.0863,,0.113,
MGESLFKGPRDYNPISSSICHLTNESDGHTTSLYGIGFGPFIITNKHLFRRNNGTLVVQSLHGVFEVKDTTTLQQHLVDGRDMIIIRMPKDFPPFPQKLKFREPQREERICLVTTNFQTKSMSSMVSDTSCTFPSGDGIFWKHWIQTKDGQCGSPLVSTRDGFIVGIHSASNFTNTNNYFTSVPKNFMELLTNQEAQQWVSGWRLNADSVLWGGHKVFMVKPEEPFQPVKEATQL [K66E],,,0.0917,0.0995,,0.0996,0.112,0.0967
MGESLFKGPRDYNPISSSICHLTNESDGHTTSLYGIGFGPFIITNKHLFRRNNGTLVVQSLHGVFKVKDTTTLQQHLVDGRDMIIIRMVKDFPPFPQKLKFREPQREERICLVTTNFQTKSMSSMVSDTSCTFPSGDGIFWKHWIQTKDGQCGSPLVSTRDGFIVGIHSASNFTNTNNYFTSVPKNFMELLTNQEAQQWVSGWRLNADSVLWGGHKVFMVKPEEPFQPVKEATQL [P89V],,,,,0.0908,0.0721,,
MGESLFKGPRDYNPISSSICHLTNESDGHTTSLYGIGFGPFIITNKHLFRRNNGTLVVQSLHGVFKVKDTTTLQQHLVDGRDMIIIRMPKDFPVFPQKLKFREPQREERICLVTTNFQTKSMSSMVSDTSCTFPSGDGIFWKHWIQTKDGQCGSPLVSTRDGFIVGIHSASNFTNTNNYFTSVPKNFMELLTNQEAQQWVSGWRLNADSVLWGGHKVFMVKPEEPFQPVKEATQL [P94V],0.102,,0.118,0.0716,,0.099,,0.155
MGESLFKGPRDYNPISSSICHLTNESDGHTTSLYGIGFGPFIITNKHLFRRNNGTLVVQSLHGVFKVKDTTTLQDHLVDGRDMIIIRMPKDFPPFPQKLKFREPQREERICLVTTNFQTKSMSSMVSDTSCTFPSGDGIFWKHWIQTKDGQCGSPLVSTRDGFIVGIHSASNFTNTNNYFTSVPKNFMELLTNQEAQQWVSGWRLNADSVLWGGHKVFMVKPEEPFQPVKEATQL [Q75D],,,0.0213,,,0.04,,
MGESLFKGPRDYNPISSSICHLTNESDGHTTSLYGIGFGPFIITNKHLFRRNNGTLVVQSLHGVFKVKDTTTLQQHLVDGRDMIIIVMPKDFPPFPQKLKFREPQREERICLVTTNFQTKSMSSMVSDTSCTFPSGDGIFWKHWIQTKDGQCGSPLVSTRDGFIVGIHSASNFTNTNNYFTSVPKNFMELLTNQEAQQWVSGWRLNADSVLWGGHKVFMVKPEEPFQPVKEATQL [R87V],,,0.0982,,0.0779,0.0735,,0.0862
